Experimental data published in publication PMC4336329 (PLoS ONE, 2015).
Screen size: about 310,000 compounds; about 2,200 (0.71%) showed an effect of 50% or more. Effects have a minus sign here. The list shows a part of the results.

target: human ether-à-go-go-related gene (hERG) potassium channel (human, UniProt Q12809); test: primary screen, population patch clamp on CHO cells stably expressing hERG
Sequence (Q12809 whole entry, looked up): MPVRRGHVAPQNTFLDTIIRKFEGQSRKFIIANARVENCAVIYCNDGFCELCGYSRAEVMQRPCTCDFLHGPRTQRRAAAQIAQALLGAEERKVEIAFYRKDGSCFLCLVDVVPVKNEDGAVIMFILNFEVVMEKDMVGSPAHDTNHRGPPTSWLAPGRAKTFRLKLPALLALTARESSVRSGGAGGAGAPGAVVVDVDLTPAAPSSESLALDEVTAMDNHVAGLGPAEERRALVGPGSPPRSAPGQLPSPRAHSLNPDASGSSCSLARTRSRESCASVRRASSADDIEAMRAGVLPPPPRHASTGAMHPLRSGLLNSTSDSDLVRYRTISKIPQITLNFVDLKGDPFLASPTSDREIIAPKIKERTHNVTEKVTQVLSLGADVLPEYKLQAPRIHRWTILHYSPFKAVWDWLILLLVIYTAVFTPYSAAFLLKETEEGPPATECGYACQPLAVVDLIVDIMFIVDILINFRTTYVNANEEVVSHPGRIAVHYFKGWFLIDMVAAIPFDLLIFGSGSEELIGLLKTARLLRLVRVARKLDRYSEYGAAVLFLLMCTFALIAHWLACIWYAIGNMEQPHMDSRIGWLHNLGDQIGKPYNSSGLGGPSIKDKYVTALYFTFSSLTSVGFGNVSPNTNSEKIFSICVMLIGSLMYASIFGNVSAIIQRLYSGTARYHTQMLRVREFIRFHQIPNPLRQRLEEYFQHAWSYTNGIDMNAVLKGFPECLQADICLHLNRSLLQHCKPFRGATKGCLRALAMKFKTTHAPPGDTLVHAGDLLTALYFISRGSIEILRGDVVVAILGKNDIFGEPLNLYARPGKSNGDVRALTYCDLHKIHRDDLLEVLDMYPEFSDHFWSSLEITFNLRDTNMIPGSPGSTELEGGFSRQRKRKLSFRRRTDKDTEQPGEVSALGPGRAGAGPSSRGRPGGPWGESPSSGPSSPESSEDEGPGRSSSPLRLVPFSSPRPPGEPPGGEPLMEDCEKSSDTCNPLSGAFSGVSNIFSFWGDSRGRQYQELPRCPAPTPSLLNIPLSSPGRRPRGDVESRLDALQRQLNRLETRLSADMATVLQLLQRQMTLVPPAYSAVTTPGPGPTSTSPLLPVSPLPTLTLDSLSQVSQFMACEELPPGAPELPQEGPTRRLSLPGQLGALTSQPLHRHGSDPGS

| SMILES | hERG current change (%, negative = inhibition) at 1uM [%] |
| --- | --- |
| COCCN(Cc1ccccc1)C(=S)Nc1ccc(Cl)cc1 | 10 |
| C/C(=N\NC(=O)c1nn(C)cc1Br)c1ccc(NC(=O)c2ccncc2)cc1 | 10.6 |
| O=c1cc[nH]c2c(C(F)(F)F)cccc12 | 2.22 |
| CC1(OC(=O)C2CCCC2)C(=O)C=C2C=C(c3ccsc3)N(CC3CC3)C=C2C1=O (stereo not shown) | 11.4 |
| Cc1ccc(NC(=O)c2c(F)cccc2Cl)cc1NS(C)(=O)=O | 16.8 |
| CCOC(=O)CC1C(=O)NCCN1c1nc2c(C)cccn2c(=O)c1/C=C1\SC(=S)N(C(C)CC)C1=O (stereo not shown) | 9.18 |
| O=C1c2cccc3cccc(c23)C(=O)N1c1ccccc1Cl | 13.2 |
| COc1ccc(S(=O)(=O)N(C)CC(=O)N2CCN(c3ccccc3)CC2)cc1 | 2.13 |
| COc1ccc(-c2csc(NC(CO)c3nc4ccccc4n3CCCO)n2)cc1 (stereo not shown) | 6.97 |
| O=C(CCNC(=O)c1ccccc1)OCN1C(=O)c2ccccc2C1=O | 6.06 |
| CCOc1ccc(C2/C(=C(\O)c3ccc4c(c3)OCCO4)C(=O)C(=O)N2CCN2CCOCC2)cc1OC (stereo not shown) | 10.9 |
| Clc1ccccc1-c1nnc(CNC2CC2)o1 | 14.8 |
| CCOc1cc(/C=C2/C(=O)ON=C2C)ccc1OCc1ccccc1 | 10.4 |
| c1ccc2c(c1)ncn2CCn1cnc2ccccc21 | -25.7 |
| COc1ccc(C(CNC(=O)c2cccc(S(=O)(=O)Nc3ccc(C)cc3)c2)N2CCOCC2)cc1 (stereo not shown) | 5.85 |
| CCOC(=O)c1oc2cccc(OC(C)=O)c2c1C | 4.9 |
| CCNC(=O)N1CCCC(C(=O)c2ccc(C(F)(F)F)cc2)C1 (stereo not shown) | 6.8 |
| CN(Cc1cccc2ccccc12)C(=O)c1cc(COc2c(F)cccc2F)on1 | 18.7 |
| Cc1ncc([N+](=O)[O-])n1CC(=O)Nc1ccc(F)c(F)c1 | 14 |
| Cc1ccc(OP(=O)(NCc2ccccc2)Oc2ccc(C)cc2)cc1 | 3.19 |
| COc1ccc(-c2nc(NC(=O)Cn3cnnn3)sc2C)cc1 | 11.9 |
| COCCCN1CN(Cc2ccco2)CNC1=S | 5.49 |
| COc1ccccc1CNC(=O)CN1c2cccc3cccc(c23)S1(=O)=O | 7.16 |

| SMILES | hERG current change (%, negative = inhibition) at 1uM [%] |
| --- | --- |
| O=C(COC(=O)c1cccs1)NC12CC3CC(CC(C3)C1)C2 | 4.56 |
| CCOc1ccc(Cc2nnc(SCC(=O)c3ccc(OC)cc3)o2)cc1 | 9.17 |
| O=C1C=C(/C=C/c2ccccc2)C[C@@H](c2ccc(F)cc2)C1 | 9.08 |
| Cc1ccc(-c2nc3ccccc3n2C)o1 | 11.7 |
| NC1=NN=C(N2N=C(c3ccc(Br)cc3)CC2(O)C(F)(F)F)n2ncnc2C1 (stereo not shown) | 4.73 |
| Cc1cc(F)ccc1NC(=O)Cn1c(C)csc1=O | 15.1 |
| CC(C)(C)C(=O)COC(=O)c1ccccc1O | 10.9 |
| CC(C)(C)NC(=O)CSc1n[nH]c(=O)n1-c1ccccc1 | 11.7 |
| O=C(c1cccnc1)N1CCN(S(=O)(=O)c2ccc(F)cc2)CC1 | 13.1 |
| COc1ccc(N(CC(O)Cn2nnc3ccccc32)S(=O)(=O)c2ccc(C)cc2)cc1 (stereo not shown) | -15.8 |
| O=C(COC(=O)c1ccc[nH]c1=O)NC1CCCc2ccccc21 (stereo not shown) | 11.2 |
| Cc1sc2nc(CN3CCCC3)nc(Cl)c2c1C | 3.18 |
| Fc1ccc(NC(=S)Nc2ccc(Br)cc2)cc1 | 11.6 |
| Cc1ccn(CCC(=O)O)n1 | 11.7 |
| CCOC(=O)c1nnc(-c2ccccc2)nc1N1CC(C)OC(C)C1 (stereo not shown) | 2.56 |
| Cc1ccc2c(c1)C1CN(C)CCC1N2C(=O)Nc1cccc(C(F)(F)F)c1 (stereo not shown) | -6.66 |
| CCOC(=O)c1oc2ccccc2c1CN1CCN(c2ccccc2)CC1.Cl | 3 |
| Cc1cc(Cl)ccc1OCCCC(=O)NCc1ccccn1 | 9.85 |
| COc1cccc(N/C(=N/C(=S)Nc2ccc(C)cc2C)Nc2nc(C)cc(C)n2)c1 | 9.13 |
| CCOCCn1c(CC)nc2ccccc21 | 10.6 |
| O=C(Nc1cccc(N2C(=O)C=CC2=O)c1)c1cccs1 | 5.92 |
| Cc1cc(C)c2c(c1)cc(C)c1nnc(SCC(=O)Nc3ccccc3N3CCOCC3)n12 | 12.6 |
| O=c1[nH]c(CN2CCOCC2)nc2cc(Cl)ccc12 | 4.78 |

| SMILES | hERG current change (%, negative = inhibition) at 1uM [%] |
| --- | --- |
| Clc1ccc(C2=Nn3c(nnc3-c3cc(-c4ccccc4)n[nH]3)SC2)cc1 | -4.12 |
| O=C(C(Cl)Cl)N1CCN(c2ccccn2)CC1 | 7.74 |
| COc1ccc(C(C)=O)cc1COc1nc(C)nc2ccccc12 | 16.7 |
| NC(=O)CC(NC(=O)Cc1ccc(Cl)cc1)c1ccc(NC2CC3CCC2C3)c([N+](=O)[O-])c1 (stereo not shown) | 4.46 |
| Cc1ccc(S(=O)(=O)CCC(=O)Nc2nnc(-c3ccc(F)cc3)o2)cc1 | 14 |
| FC(F)(F)c1ccccc1-n1ccnc1 | 16.9 |
| Cc1cc(C)c(NC(=O)Cn2nnc(C(=O)Nc3ccc(F)cc3F)c2N)c(C)c1 | 15.4 |
| COc1ccc(S(=O)(=O)N2CCC(C(=O)NC3CCCCC3)CC2)cc1OC | 10.5 |
| CCOc1ccccc1OCCCC(=O)N1CCN(S(=O)(=O)c2ccc(Cl)cc2)CC1 | 14.5 |
| O=c1c2c([nH]c3ccccc13)C(=C1CCCC1)CC2 | -4.77 |
| CC(=O)c1cccc(N(C(=O)CNC(=O)c2ccco2)C(C(=O)NCC2CCCO2)c2ccccc2)c1 (stereo not shown) | 15.7 |
| O=C(COC(=O)/C=C/c1cccs1)Nc1cccc(S(=O)(=O)N2CCOCC2)c1 | 12.8 |
| O=C(CSc1ccccc1)Nc1ccc(N2CCN(c3ccccc3)CC2)c(F)c1 | 11 |
| COCCCNCC1C(Oc2ccc(Cl)cc2)C(=O)N1c1ccccc1C (stereo not shown) | 9.03 |
| CC(C)CC(NC(=O)C1CCC(C)CC1)C(=O)Nc1ccccn1 (stereo not shown) | 7.59 |
| O=C(O)/C=C/C(=O)NCCc1ccc(Cl)cc1 | 13.5 |
| Cc1cc(Br)ccc1NC(=O)CCN1C(=O)c2ccncc2C1=O | 9.03 |
| CCN(CC(=O)Nc1ccccc1C(F)(F)F)C(=O)CN1C(=O)NC2(CCCC2)C1=O | 5.04 |
| Nc1nc(C(=O)N2CCOCC2)nn1S(=O)(=O)c1ccccc1 | 11.4 |
| Cc1ccc2nc(NC(=O)/C=C/c3ccc4c(c3)OCO4)sc2c1 | 11.1 |
| COC(=O)CSc1nc(N)c(C#N)c(CC(C)C)c1C#N | 5.93 |
| Cc1cc(=O)[nH]c(SCCCOc2ccccc2Cl)n1 | 6.59 |
| O=C(Nc1ccc(N2CCN(C(=O)c3ccccc3)CC2)cc1)c1ccc2c(c1)OCO2 | -5.1 |

| SMILES | hERG current change (%, negative = inhibition) at 1uM [%] |
| --- | --- |
| Cc1ccc(NC(=S)N2CCc3[nH]c4ccccc4c3C2)cc1 | 12.7 |
| FC(F)(F)c1cccc(NC(=S)Nc2cccc(Cl)c2)c1 | 10.7 |
| O=C(CCS(=O)(=O)c1ccccc1)N1CCCc2ccccc21 | 11.8 |
| Cc1oc(S(=O)(=O)N2CCOCC2)cc1C(=O)Nc1ccc(Cl)cc1 | 6.6 |
| CN(C)CCOC(=O)NCC12CC3CC(CC(C3)C1)C2.Cl | 9.36 |
| CN(CC(=O)Nc1ccccc1Cl)C(=O)c1cccc(-n2cccc2)c1 | -18 |
| Cc1ccc(S(=O)(=O)N2CCN(C(=O)c3ccccc3)CC2)c(C)c1NS(C)(=O)=O | 13.1 |
| Cc1ccc(-c2cn3cccnc3n2)cc1NC(=O)c1cccs1 | 10.5 |
| CCCSc1nc2c(c(=O)n(C)c(=O)n2C)n1C | 11 |
| CC1(C)CCc2cc(CN3CCN(c4ccccn4)CC3)ccc2O1 | 13.4 |
| COC(=O)c1ccc(C(C(=O)NCc2ccccc2)N(Cc2cccs2)C(=O)c2cnccn2)cc1 (stereo not shown) | -8 |
| C=CCNC(=S)NCC | 17.2 |
| COC(=O)c1ccc(OCC(=O)Nc2nn(-c3ccccc3)nc2C(N)=O)cc1 | -10.7 |
| O=C(NC1CCCCC1)Nn1c(-c2ccccc2)nc2ccccc2c1=O | 11.3 |
| COC(=O)c1ccc(C(=O)OC)c(NC(=O)CN2CCN(c3ccccc3)CC2)c1 | 3.9 |
| S=C(NN=C(C1CC1)C1CC1)Nc1ccccc1 | -8.05 |
| COc1ccc(-c2c(C)oc3ccc(C)cc23)cc1 | 8.91 |
| CCN(C(=O)c1cnc(OC)cc1C(F)(F)F)c1ccc(Cl)cc1Cl | 11.9 |
| CC1=C(C(=O)OC(C)C)C2(O)C(=O)c3ccccc3C2(O)N1 (stereo not shown) | 14.3 |
| Clc1cccc(C2Nc3cccc4cccc(c34)N2)c1Cl | 8.98 |
| O=C(c1ccccc1)c1cn(CC(=O)N2CCCc3ccccc32)c2ccccc12 | 8.76 |
| COc1ccc(N2C(=O)CC(n3c(CCCCO)nc4ccccc43)C2=O)cc1 (stereo not shown) | 13.7 |
